According to PubChem BioAssay (NCI):
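Results reflect a 48-hour exposure of cells in 96-well plates to compound at five concentrations. GI50 marks 50% less growth.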 A number of entries come with more than one value. Only these are listed. There may be further records. For part of these data: The tests behind the records often covered other concentration ranges, not given here; a value can be the end of its range.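 At the TGI there is no net growth.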 For part of these data: Values that stand side by side repeat one measurement across runs, samples, wells, individuals or studies. Records carry a tag for their origin. The letters are not those of the source and start again with each entry.

Columns and labels:
Assay in all cases: NCI anticancer screen, dose series, 48 h
DU-145 prostate = tested on: DU-145 prostate
CAKI-1 renal = tested on: CAKI-1 renal
MDA-N = tested on: MDA-N
HL-60(TB) leukemia = tested on: HL-60(TB) leukemia
SNB-75 CNS = tested on: SNB-75 CNS
SW-620 colon = tested on: SW-620 colon
T-47D breast = tested on: T-47D breast
NCI-H522 lung = tested on: NCI-H522 lung
SK-OV-3 ovarian = tested on: SK-OV-3 ovarian
COLO 205 colon = tested on: COLO 205 colon
HOP-62 NSCLC = tested on: HOP-62 NSCLC
RPMI-8226 leukemia = tested on: RPMI-8226 leukemia
IGROV1 ovarian = tested on: IGROV1 ovarian
NCI-H23 lung = tested on: NCI-H23 lung
SR leukemia = tested on: SR leukemia
K-562 leukemia = tested on: K-562 leukemia

C[C@H](N)C(=O)N[C@@H]1[C@H]2C(=C(O)C[C@@H](O)[C@@H]2O)C(=O)O[C@]1(C)C(Cl)Cl
TGI (DU-145 prostate): 14.4 µM and 1.17 µM | TGI (CAKI-1 renal): 15.7 µM and 1.04 µM | TGI (MDA-N): 11.9 µM and 721 nM | TGI (HL-60(TB) leukemia): > 31.6 µM [mean of 2 tests] and 2.13 µM [mean of 6 tests]

CC(/C=C/C(=O)c1sc(-n2nc(-c3ccccc3)cc2-c2ccccc2)nc1C)=C\c1ccccc1
TGI (SNB-75 CNS): 9.46 µM and > 100 µM

CCc1c2c(nc3cc4c(c(N)c13)OCO4)-c1cc3c(c(=O)n1C2)COC(=O)[C@]3(O)CC
GI50 (SW-620 colon): < 1 nM and 13.7 nM | TGI (T-47D breast): 15.1 nM and > 100 µM | GI50 (NCI-H522 lung): 2.19 nM and 39.1 nM | GI50 (MDA-N): 55.4 nM and 2.98 µM | TGI (SK-OV-3 ovarian): 1.84 µM and > 100 µM | TGI (COLO 205 colon): 5 µM and > 100 µM | TGI (HOP-62 NSCLC): 13 nM and 1.42 µM | GI50 (RPMI-8226 leukemia): 1.39 nM and 23.6 nM | TGI (IGROV1 ovarian): 3.79 µM and > 100 µM | TGI (SNB-75 CNS): 3.8 µM and > 100 µM | TGI (NCI-H23 lung): 2.15 µM and 111 nM

O=C(c1ccc(OCCN2CCCCC2)cc1)c1c(-c2ccc(O)cc2)sc2cc(O)ccc12
TGI (SR leukemia): 5.25 µM [sample A, mean of 2 tests] and > 100 µM [sample B, 1 test] | TGI (K-562 leukemia): > 100 µM [sample A, 1 test] and 7.26 µM [sample B, 1 test]
